Results from PubChem BioAssay AID624417 (National Center for Advancing Translational Sciences (NCATS), 2012).
Hit rate of the full screen: of about 410,000 compounds, about 6,400 (1.6%) were called active. The inconclusive results got no clear call from the source; some entries with a clear call stand among them for comparison. Calls come from the whole dose curve; as a rule, active = well fitted inhibition curve with a large enough effect; inconclusive = small, poorly fitted or top-dose-only effect; inactive = no such curve, though single readings can be large or run the other way. A potency beside an inconclusive call is a rough fit, not a confirmed value.

Target: Glucagon-like peptide 1 receptor (Homo sapiens) (UniProt P43220)
Assay: qHTS of GLP-1 Receptor Inverse Agonists (Inhibition Mode); note: nearly all actives have a fitted effect of over 55% in size
Settings: HEK293 GLP-1R CRE-luciferase, luminescence, 24 h, GLP-1R form is constitutively active; activity change, negative = inhibition: at 38.3 µM (top of the series) unless noted
Method in brief: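 Cells are plated, allowed 12 hours at 37 deg C, then treated with compounds for 24 hr before luciferase detection reagent is added and luminescence is read after 12 min at room temperature. The HEK293 line carries constitutively active GLP-1R with a cAMP-responsive reporter.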
% is set by controls: 0 for no effect and ±100 for the full control effect; potency is the fitted concentration of half-maximal effect; tags give direction and shape of the fitted curve.

UniProt P43220, sequence (P43220 whole entry, looked up): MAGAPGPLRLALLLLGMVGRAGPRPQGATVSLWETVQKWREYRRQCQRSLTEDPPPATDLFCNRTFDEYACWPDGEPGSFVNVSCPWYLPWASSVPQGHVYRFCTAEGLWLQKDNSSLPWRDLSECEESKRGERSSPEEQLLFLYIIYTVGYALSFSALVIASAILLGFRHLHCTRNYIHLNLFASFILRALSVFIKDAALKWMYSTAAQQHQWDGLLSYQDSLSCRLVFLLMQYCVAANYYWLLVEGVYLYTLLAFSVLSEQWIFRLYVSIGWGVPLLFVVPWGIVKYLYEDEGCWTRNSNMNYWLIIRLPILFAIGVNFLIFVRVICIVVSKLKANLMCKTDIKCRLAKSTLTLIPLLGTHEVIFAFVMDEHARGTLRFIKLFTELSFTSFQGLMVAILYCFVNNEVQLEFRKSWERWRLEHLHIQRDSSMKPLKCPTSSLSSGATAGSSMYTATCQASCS

Potency, active:
CCN(CC)CCCCN1c2ccccc2Sc2ccccc21 5.01 µM, CC(C)(C)NC(=O)C(c1c[nH]c2ccccc12)N(C(=O)Cn1nnc(-c2ccc(Cl)cc2)n1)c1ccccc1F (configuration not stated) 5.01 µM

Potency, inconclusive:
CCCCCCN1N=C(C)C(C(=O)c2ccc(Cl)cc2)C1=O (configuration not stated) 3.16 µM [inhibitor, partial curve, poor fit], CCN(CC)CCCNC(=O)c1oc2c(c1C)-c1nn(Cc3ccc(Cl)cc3)cc1CC2 28.2 µM [inhibitor, partial curve, poor fit], O=C(Cn1nc(-c2ccccc2F)ccc1=O)Nc1ccc(S(=O)(=O)N2CCCCCC2)cc1 11.2 µM [inhibitor, partial curve, poor fit], CCn1cc(CN2CCC(C(=O)Nc3ccc(Oc4ccccc4F)cc3)CC2)c(C)n1 5.62 µM [inhibitor, partial curve, poor fit], COc1ccc([N+](=O)[O-])cc1NCc1ccccc1 28.2 µM [inhibitor, single point], OCC1(Cc2cccc(F)c2)CCN(Cc2ccc3cccc(F)c3n2)CC1 11.2 µM [inhibitor, partial curve, poor fit], CCOc1ccccc1C1c2[nH]c3ccccc3c2C[C@H]2C(=O)N(C3CCN(Cc4ccccc4)CC3)CC(=O)N12 (some centres not stated) 5.01 µM [inhibitor, full curve, poor fit], Cc1ccc(NNC(=S)Nc2ccc(C(C)C)cc2)c(C)c1 10 µM [inhibitor, single point], CCOc1ccc(Oc2ccc(S(=O)(=O)N3CCOCC3)cc2NC(=O)C2=COCCO2)cc1 10 µM [inhibitor, single point], CCCN(CC(=O)Nc1ccccc1C)C(=O)C1CC(=O)N(c2ccc(CC)cc2)C1 (configuration not stated) 7.94 µM [inhibitor, partial curve, poor fit], O=C(Nc1ccc(Cl)cc1)N(C1=NCCC1)c1ccc(OC(F)F)cc1 12.6 µM [inhibitor, single point], Fc1c(F)c(F)c(CSc2nc3ccccc3[nH]2)c(F)c1F 14.1 µM [inhibitor, partial curve, poor fit], O=S(=O)(NCCn1cccc1)c1ccc2ccccc2c1 10 µM [inhibitor, partial curve, poor fit], O=C(Nc1ccccc1)Nc1nnc(COc2ccccc2F)s1 31.6 µM [inhibitor, single point], CSc1nc(Sc2ccccc2)c2ccccc2n1 28.2 µM [inhibitor, single point], O=C(CN1CCN(C2CCCCC2)CC1)Nc1ccc(Br)cc1 10 µM [inhibitor, partial curve, poor fit], O=C(CSc1cc(Cl)ccc1Cl)NCC(=O)Nc1ccc(F)c(F)c1F 20 µM [inhibitor, partial curve, poor fit], CCc1sc(NC(=O)C(C)C)nc1-c1ccccc1 20 µM [inhibitor, single point], COc1ccccc1NC(=O)CSCc1cc(=O)c2c(C)cc(C)cc2[nH]1 28.2 µM [inhibitor, single point], O=C(/C=C/c1ccc(Cl)c(Cl)c1)NCCCn1ccnc1 28.2 µM [inhibitor, single point], COc1ccc(CNC(=O)NCCc2c[nH]c3ccccc23)cc1 7.94 µM [inhibitor, partial curve, poor fit], O=C(NC(=S)NCc1ccc2c(c1)OCO2)c1ccccc1 11.2 µM [inhibitor, single point], CC(C)(C)C1CCc2nc(NC(=O)Cc3ccc(Cl)cc3)sc2C1 (configuration not stated) 10 µM [inhibitor, single point], COc1cc(CN2CCC(C(=O)NC(c3ccc(F)cc3)c3ncccc3C)CC2)cc(OC)c1 (configuration not stated) 28.2 µM [inhibitor, single point], OC(COc1cccc2ccccc12)CN1CCN(c2ccc(Cl)cc2)CC1 (configuration not stated) 11.2 µM [inhibitor, partial curve, poor fit], Cc1ccc(CN2CCN(/N=C/c3ccco3)CC2)c(C)c1 28.2 µM [inhibitor, single point], COC(=O)c1ccc(NC(=O)CN(c2ccc(C)cc2)S(=O)(=O)c2c(C)n[nH]c2C)cc1 11.2 µM [inhibitor, partial curve, poor fit], CC(C)(C)C1CCC(CN2C(Nc3ccccc3)=NC[C@@H]2Cc2ccccc2)CC1 (some centres not stated) 12.6 µM [inhibitor, single point], O=C(OCCN1CCN(c2ncc(C(F)(F)F)cc2Cl)CC1)c1ccc(F)cc1 31.6 µM [inhibitor, single point], COc1cccc(-c2sc3ccc(OC)cc3c2-c2cc(F)cc(OC)c2)c1 10 µM [inhibitor, partial curve, poor fit], CNCc1cc(C)n(-c2cc(S(=O)(=O)N3CCOCC3)ccc2N2CCCC2)c1C 0.891 µM [inhibitor, full curve, poor fit], COc1cc(OC)c2c(-c3ccccc3)cc(=O)oc2c1C(CCN1CCCC(C)C1)c1ccc(N(C)C)cc1 (configuration not stated) 28.2 µM [inhibitor, single point], FC(F)(F)c1ccccc1Cc1c(C2CCCCC2)nc2c3ccccc3ccn12 3.16 µM [inhibitor, full curve], CC(C)(C)c1ccc(C(=O)N2CCC2(C)C(=O)NCc2cccs2)cc1 (configuration not stated) 22.4 µM [inhibitor, single point], O=c1cc(N2CCCCC2)c(-c2ccccc2)nn1Cc1ccccc1 6.31 µM [inhibitor, partial curve, poor fit], CN(C)CCCN(C(=O)c1ccc(S(=O)(=O)N2CCCCC2)cc1)c1nc2cc3c(cc2s1)OCO3 12.6 µM [inhibitor, single point], COc1ccc(NC(=O)C(C/C=C(/C)Cl)C(C)=O)cc1 (configuration not stated) 10 µM [inhibitor, partial curve, poor fit], COc1ccc(N(C(C)C(=O)NCCSCc2cccc(Cl)c2)S(C)(=O)=O)cc1 (configuration not stated) 28.2 µM [inhibitor, single point], O=C(NCc1ccc(Cl)cc1)N1CCc2ccccc2C1 11.2 µM [inhibitor, single point], CC1(C)Cc2c(ccc3ccccc23)C(=O)N1 11.2 µM [inhibitor, single point], COc1ccc(NC(=S)N2CCC(C(=O)c3ccc(C)cc3)CC2)c(OC)c1 3.16 µM [inhibitor, full curve], O=C(NCc1ccccc1)C1C(c2ccc3c(c2)OCO3)=Nc2ccccc2N1C(=O)c1ccco1 (configuration not stated) 20 µM [inhibitor, single point], CCN(CC)c1ccc(NC(=O)c2cccc(OC)c2)c(C)c1 6.31 µM [inhibitor, partial curve, poor fit], CC1(Cc2ccc(Cl)cc2)C(=O)Nc2ccc(-c3ccc(F)c(Cl)c3)cc21 (configuration not stated) 31.6 µM [inhibitor, partial curve, poor fit], NC(=O)CSc1cn(Cc2ccccc2)c2ccccc12 6.31 µM [inhibitor, partial curve, poor fit], CC(=O)Oc1ccc(-c2csc(Nc3ccccn3)n2)cc1 14.1 µM [inhibitor, single point], CCOC(=O)c1cccc(-c2c(-c3ccccc3)ncc3cc(OC)c(OC)cc23)c1 25.1 µM [inhibitor, single point], Fc1ccc(CNc2ncnc3c2c(-c2ccccc2)cn3-c2ccccc2)cc1 1.78 µM [inhibitor, partial curve, poor fit], CCOC(=O)C1=CCN(S(=O)(=O)c2ccc(Br)cc2)C1c1cccc(C)c1 (configuration not stated) 20 µM [inhibitor, single point], CCN1C/C(=C/c2ccc(N3CCOCC3)cc2)C(=O)/C(=C/c2ccc(N3CCOCC3)cc2)C1 12.6 µM [inhibitor, single point], Cc1csc(=O)n1CC(=O)Nc1ccc(Cl)c(Cl)c1 11.2 µM [inhibitor, single point]

Activity change, negative = inhibition, inactive:
COCCNC(=S)N/N=C/c1ccc(-c2ccc([N+](=O)[O-])cc2)o1 7.87%, COc1ccc(NC(=O)Cn2c(C)c3cnn(-c4ccccc4)c(=O)c3c2C)c(OC)c1 3.89%, COc1ccc(C(=O)CCC(=O)Nc2ccccc2C)cc1 13.8%, Cc1cccc(NC(=O)C2CCCN(S(=O)(=O)c3c(C)noc3/C=C/N(C)C)C2)c1C (configuration not stated) -12.8%, Cc1cc(C)c2c(=O)n(CC(=O)NC3CCCC3)sc2n1 2.09%, Cc1ccc(C)c(N2CCN(C(=O)CN3C(=O)CSc4c3c(C)nn4-c3ccccc3)CC2)c1 11.6%, Cc1cc(=O)n2c3ccccc3n(CC(O)CN3CCCCC3)c2c1C#N (configuration not stated) -0.155%, CCN1C(=O)CSC1=NC12CC3CC(CC(C3)C1)C2 -0.575%, CC(C)NC(=O)NC(=O)CSc1nncn1C 0%
